Experimental data taken from PubChem BioAssay AID624296 (National Center for Advancing Translational Sciences (NCATS), 2012).
Out of some 350,000 compounds screened, about 9,900 (2.8%) were called active. The inconclusive results got no clear call from the source; some entries with a clear call stand among them for comparison. Calls come from the whole dose curve; as a rule, active = well fitted activation curve with a large enough effect; inconclusive = small, poorly fitted or top-dose-only effect; inactive = no such curve, though single readings can be large or run the other way. No potency is given beside an inconclusive call; the fits are too rough.

Experiment: A quantitative high throughput screen for small molecules that induce DNA re-replication in MCF 10a normal breast cells. For activity, positive = re-replication: % of control where 0% means no effect. Note: nearly all actives have a fitted effect of over 50% in size.
Details: MCF 10A DNA re-replication, Hoechst nuclear intensity, 48 h; activity, positive = re-replication: at 46.1 µM (top of the series)
Potency is the fitted concentration of half-maximal effect; tags give direction and shape of the fitted curve.

Row | Compound | Potency | activity, positive = re-replication
1 | O=c1cc(-c2ccccc2)c2ccccc2[nH]1 | inconclusive [activator, single point] | 
2 | CC(=O)OC(C(=O)NC1CCCCC1)c1ccc(C#N)cc1 (centres undefined) | inactive | 
3 | Cc1cc(C)nc(NS(=O)(=O)c2ccc(NC(=O)c3cccs3)cc2)n1 | inactive | 
4 | COc1cccc(NC(=O)CN(C)C(=O)C(CCSC)NC(=O)c2ccco2)c1 (centres undefined) | inactive | 
5 | CC(=O)OCC1=C(C(=O)O)N2C(=O)C(NC(=O)C(C)Cn3nc(C)c(Cl)c3C)C2SC1 (centres undefined) | inconclusive [activator, single point] | 
6 | Cc1ccc(S(=O)(=O)N(CC(=O)N/N=C/c2cccc3c2OCCO3)c2ccccc2F)cc1 | inconclusive [activator, partial curve, poor fit] | 
7 | COc1ccc(C(CNC(=O)c2ccc(C)c(S(=O)(=O)Nc3ccccc3OC)c2)N2CCCC2)cc1 (centres undefined) | inactive | 
8 | O=C(OCc1nc2ccsc2c(=O)[nH]1)c1ccc(Cl)s1 | inconclusive [activator, partial curve, poor fit] | 
9 | CCOc1ccc(NC(=O)/C=C/c2ccccc2)c([N+](=O)[O-])c1 | inactive | 
10 | CCOc1ccc(CNC(=O)c2ccc(Sc3ccc(Cl)cc3)c(NC(C)=O)c2)cc1 | inconclusive [activator, single point] | 
11 | COc1cc(/C=C(\C#N)c2ccccn2)ccc1OCc1ccccc1Cl | inconclusive [activator, partial curve] | 
12 | Cc1[nH]c2c(Br)cccc2c1[C@H]1[C@@H](CC#N)C1(C)C | inconclusive [activator, single point] | 
13 | N#CC1=C(Nc2ccccc2Cl)SC(c2ccccc2O)NC1=O (centres undefined) | inconclusive [activator, single point] | 
14 | CCOC(=O)C1=C(C)N=c2s/c(=C\C(=O)OC)c(=O)n2C1c1ccc(OC)cc1 (centres undefined) | inconclusive [activator, partial curve, poor fit] | 
15 | CC1(C)Cc2c(sc3c2C2=NCCN2C=N3)CS1 | inconclusive [activator, single point] | 
16 | CCCCN(CCCC)CCCNC(=O)C1CC(c2ccc(C(F)(F)F)cc2)=NO1 (centres undefined) | inactive | 
17 | CCCC(=O)Nc1nc2ccc(NC(=O)c3c(F)c(F)c(OC)c(F)c3F)cc2s1 | inconclusive [activator, full curve, poor fit] | 
18 | O=C(c1ccccc1)c1cc([N+](=O)[O-])ccc1N1CCOCC1 | inconclusive [activator, full curve, poor fit] | 
19 | O=C(O)CCC(=O)N1N=C(c2ccc(Br)cc2)CC1c1ccc(Br)cc1 (centres undefined) | inactive | 
20 | CCN(CC)CCCNC(=O)c1c(O)c2cc(F)cc3c2n(c1=O)C(C)CC3 (centres undefined) | inconclusive [activator, single point] | 
21 | CCCCN1CC(COCc2ccccc2)Oc2cccc(NCc3ccc(OC)cc3)c2S1(=O)=O (centres undefined) | inconclusive [activator, single point] | 
22 | CCCCn1c(SCc2cccc([N+](=O)[O-])c2)nc2ccsc2c1=O | active: 16.4 µM | 

Row | Compound | Potency | activity, positive = re-replication
23 | CCOC(=O)C1(C)/C(=N/Nc2ccccc2OC)C(=O)C(=O)N1c1ccccc1 (centres undefined) | inconclusive [activator, single point] | 
24 | CCC(=O)Nc1cc(SCCO)cc([N+](=O)[O-])c1 | inactive | 
25 | CCN(CC)S(=O)(=O)c1cccc(NC(=O)COc2ncnc3sccc23)c1 | inactive | 
26 | C#CCOCCOCCOCCNc1nc(N2CCN(C(=O)[C@H](C)n3cc(CCC(=O)O)nn3)CC2)nc(N2CCN(C(=O)[C@H](Cc3ccc(O)cc3)n3cc(CCO)nn3)CC2)n1 | inconclusive [activator, full curve, poor fit] | 
27 | C#CC[N+](C)(C)CCCCCCCCCC | inconclusive [activator, partial curve, poor fit] | 
28 | Cc1[nH]n(-c2ccc(Cl)c(Cl)c2)c(=O)c1CCO | inconclusive [activator, single point] | 
29 | CCN1C(=O)/C(=C\C=C\c2ccccc2[N+](=O)[O-])SC1=S | active: 4.11 µM | 
30 | COc1ccc(/C=C/C2=NC(=C\N(C)C)/C(=O)O2)cc1 | inconclusive [activator, full curve, poor fit] | 
31 | O=C(NN=C1CCCC1)c1ccc(O)cc1 | inactive | 
32 | O=C(Nc1ccc(OCC(=O)N2CCC(Cc3ccccc3)CC2)cc1)c1ccco1 |  | inactive: -191% [at 0.0737 µM]
33 | Cc1ccccc1OCC(=O)Nc1ccc(C(=O)Nc2ccccc2C(=O)O)cc1 | inactive | 
34 | Cc1cc(C)n2ncc(S(=O)(=O)c3ccccc3)c2n1 | inconclusive [activator, partial curve, poor fit] | 
35 | O=C(NC1CCN(C(=O)N2c3ccccc3Sc3ccccc32)CC1)c1ccccc1Cl | inactive | 
36 | COc1ccc2cc(CN(Cc3ccco3)C(=S)NCC3CCCO3)c(=O)[nH]c2c1 (centres undefined) | inconclusive [activator, single point] | 
37 | CCOc1ccc(NS(=O)(=O)c2ccc(C(=O)N(C)CCc3ccc(OC)c(OC)c3)cc2)cc1 | inactive | 
38 | CN(CC(=O)N1CC=C(c2ccccc2)CC1)S(=O)(=O)c1ccc2c(c1)c(=O)n(C)c(=O)n2C | inactive | 
39 | Cn1cc([N+](=O)[O-])c(C(=O)N/N=C/c2cc3c(cc2Br)OCO3)n1 | inconclusive [activator, single point] | 
40 | Cc1cccc(C)c1NC(=S)N(Cc1ccco1)C1CCN(C(C)C)CC1 | inactive | 
41 | CC(C)c1ccc(O)c(NC(=S)NC(=O)c2cccnc2)c1 | inconclusive [activator, single point] | 
42 | COc1cc(OC)c(OC)cc1CNC(=O)c1ccc(S(=O)(=O)N2CCCCC2)cc1 | inactive | 
43 | Cc1cc(C(=O)OCC(=O)NNC(=O)c2cccs2)ccc1[N+](=O)[O-] | inconclusive [activator, single point] | 
44 | O=C(CN1C(=O)S/C(=C\c2ccc(Cl)cc2)C1=O)NC1C=CS(=O)(=O)C1 (centres undefined) | inconclusive [activator, single point] | 
